# Assay results from the supplement of paper PMC10338343.
# ± gives the standard deviation. The entries are a selection whose mix differs from that of the whole data set.
# Tested on: MIWI (PIWIL1) piRISC loaded with piRNA #1 (30 nt)
# Experiment: pre-steady-state target cleavage rate (min^-1); MIWI and MILI are mouse PIWI proteins and EfPiwi is from a freshwater sponge; tags in brackets are library labels; higher = faster piRNA-guided slicing of the target
# Details: guide: piRNA #1 5'p-UGAGGUAGUAGGUUGUAUAGUAUCCAGAGG; auxiliary factor: 500 nM mouse GTSF1
# In short: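 The pre-steady-state cleavage rate came from a burst-and-steady-state fit to pooled data from three Cleave-'n-Seq trials, in which uncleaved targets were sequenced and normalised to depth and to weakly complementary targets. Each reaction held 0.1 nM transcribed, DNA-blocked target RNA library and 1 nM active affinity-purified piRISC carrying one synthetic guide, with or without 500 nM GTSF1 partner protein, in HEPES–potassium acetate buffer at 33 °C for 0–8 or 0–960 min. k3 was capped at 0.0001 min^-1.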
row,Sequence,pre-steady-state target cleavage rate
1,GGAGAGGAUACUAUACACCCUACUACCUCA,1.4 ± 0.068
2,GGUCUGGAUAGUAUACUACCUACUACCUCA,0.595 ± 0.064
3,GGAGACCUUACUCUACAACCUACUACCUCA,1.4 ± 0.088
4,GGAGACAAUACUAUACAACCUACUACCUCA,1.81 ± 0.098
5,GGAGAGGAUACUAUACAACCUAGAACCUCA,0.0166 ± 0.0042
6,GGUCUGCAUAGUAUACAACCUACUACCUCA,1.6 ± 0.14
7,GGAGACGAUACUAUACUACCUACUACGUCA,0.833 ± 0.074
8,GCUCUGGAUACUAUACUACCUACUACCUCA,1.5 ± 0.088
9,GGAGACCAUACUAUAGAACCUUCUACCUCA,0.134 ± 0.023
10,GGAGAGGAUAGUAUACAACCUACUACCUGA,0.147 ± 0.025
11,GCUCUGGAUACUCAUACAACCUACUACCUCA,1.31 ± 0.068
12,CCUCUGGAUACUAUACAACCUACUUGGUCA,0.107 ± 0.026
13,CCUCUGGAUACUAUACAACCUACUCACCUCA,0.86 ± 0.073
14,GGAGACCUAUCUAUACAUGCUACUACCUCA,0.0898 ± 0.014
15,GGAGUGGACACUAUACAACCUACUACCUCA,1.67 ± 0.082
16,GGAGUGGAUAGUAUACAACCUACAACCUCA,0.521 ± 0.045
17,GGACUCGAUACUAUACAACCUACUACCUCA,1.69 ± 0.12
18,GGAGAGGAUACAAUAGAACCUACUACCUCA,0.93 ± 0.051
19,GGACUGGAUACUAUACAACAUACUACCUCA,1.19 ± 0.077
20,GGAGUGGAUACUUUACAACGUACUACCUCA,0.714 ± 0.045

row,Sequence,pre-steady-state target cleavage rate
1,GGAGAGGAUACUAUACAACCUACUACCUCCA,0.913 ± 0.048
2,GGAGACGAUACUAUACAACCUACUACGAGA,0.592 ± 0.2
3,GGAGAGGAUACUAAACAACCUAGUACCUCA,0.0629 ± 0.018
4,GCUCUGGAUACUAUACGAACCUACUACCUCA,0.0084 ± 0.0051
5,CCUCUGGAUACAAUACAACCUACUUCCUCA,0.567 ± 0.045
6,GGAGUGGAUACUAUUCAACCUUCUACCUCA,0.567 ± 0.027
7,GGAGACCUAACUAGUACAACCUACUACCUCA,0.28 ± 0.046
8,GGAGACCUAUGUAUAGAACCUACUACCUCA,0.126 ± 0.019
9,GGACUGGAUACUAUACAACCAUGUACCUCA,0.00488 ± 0.0037
10,GGAGACCUAUGAUAUGUACCAACAACCUCA,< 0.0001
11,GGUCUGGUAUACUAUACAACCUACUACCUCA,1.69 ± 0.091
12,GGAGACGAUACUAUACAACGUACAACCUCA,0.594 ± 0.063
13,CGUCUGGAUACUAUACAACCUACUACCUCA,1.78 ± 0.12
14,CCUCUGGAUACUAUACAACCUUACUACCUCA,0.01 ± 0.0033
15,GGAUUGGAUACUAUACAACCUACUACCUCA,1.77 ± 0.095
16,GGAGUGGAAACUAUACAACCUACUACCUCA,1.58 ± 0.086
17,CCUCUGGAUACUAUACAACCUAGUUCCUCA,0.114 ± 0.029
18,GGAGACCAAUACUAUACAACCUACUACCUCA,1.69 ± 0.11
19,GGAGAGGAUACUAUACAACCUUCUUCCUCA,0.0139 ± 0.0045
20,CCAGUGGAUACUAUACAACCUACUACCUCA,2.01 ± 0.11
